From ChEMBL document CHEMBL4888484, “Replenishing the malaria drug discovery pipeline: Screening and hit evaluation of the MMV Hit Generation Library 1 (HGL1) against asexual blood stage Plasmodium falciparum ,using a nano luciferase reporter read-out” (2022)
Hit rate of the full screen: of about 150,000 compounds, about 540 (0.36%) showed an effect of 50% or more. The list shows a part of the results.

Test system: Plasmodium falciparum
Experiment: Primary screen in NF54 nanoGlo assay, in single point, at 2uM, 72h; a lower Z score goes with more inhibition
Assay type: functional, Erythrocyte
Conditions: timepoint 72 hour

| Compound | % Inhibition | Z score |
| --- | --- | --- |
| Cc1ccc(C(=O)Nc2ccc(N[C@@H](C)c3ccccc3)c(Cl)c2)cn1 | -7% | 0.67 |
| O=C(CCCc1ccccc1)Nc1ccc(-c2cn3ccccc3n2)cc1 | -8% | 1.52 |
| O=C(CC1(O)CCCC1)N[C@H]1CCN(c2ncc[nH]c2=O)C1 | -9% | 1.19 |
| CCC[N+]1(CC#C[C@@](O)(c2ccccc2)C(C)(CC)CC)CCCCC1 | 54% | -8.65 |
| CN(Cc1ccccc1)CC(C)(C)NC(=O)NCc1nccn1C | -4% | 0.52 |
| Nc1ccc(S(=O)(=O)N2CC3(CCOCC3)[C@@H]2C2CC2)cc1 | -8% | 0.79 |
| CC(C)(C)C(=O)NCCNc1ccc(F)cn1 | -10% | 1.15 |
| Cc1nc(CNCc2cccnc2N2CCN(C)CC2)cs1 | -6% | 0.88 |
| CC(C)Cc1ccc(CN2C[C@@H]3CC[C@H]2CN(Cc2ccccn2)C3)s1 | 4% | -0.77 |
| COC(=O)c1cn(CCc2c[nH]c3ccccc23)cc(C(=O)OC)c1=O | 31% | -1.14 |
| O[C@H]1CCCC[C@@H]1n1cnc(-c2ccccc2)c1-c1cccc2ncccc12 | 0% | 0.05 |
| CCC[N+](CC#CCO)(CC#Cc1ccccc1)CCC | -12% | 1.05 |
| O=C1CCC[C@H]2[C@@H]3C[C@H](CN(c4ccncc4F)C3)CN12 | -1% | 0.11 |
| CN(C)S(=O)(=O)N1CCCN(C(=O)CC(C2CCC2)C2CCC2)CC1 | 0% | -0.04 |
| COCC[C@]1(NS(=O)(=O)c2ccccc2)CCN(S(=O)(=O)C2CC2)C1 | -4% | 0.54 |
| O=C(NC1(c2nccs2)CCCC1)[C@@H]1CCN(c2ccc(F)cc2)C1=O | 6% | -0.9 |
| CCCN1CCC[C@H]1CNC(=O)C1(C)CCc2ccccc21 (stereo partly drawn) | -6% | 0.7 |
| Cc1nn(C(C)(C)C)cc1C(=O)N(C)CCc1nccs1 | -14% | 1.41 |
| O=C(N[C@@H](CO)C1CCCC1)c1ncoc1C1CC1 | -7% | 0.92 |
| CN1CCC(N(CCc2ccccc2)Cc2cscn2)CC1 | -10% | 1.35 |
| COc1ccc(F)cc1CN1CCN(CC(=O)N[C@H]2CCCc3ccccc32)CC1 | -2% | 0.28 |

| Compound | % Inhibition | Z score |
| --- | --- | --- |
| O=C(O)[C@H]1CC(=O)N(CCc2c[nH]c3ccc(Cl)cc23)C1 | 0% | -0.01 |
| CC(C)(O)C#Cc1ccc(CN2CCC[C@@](CO)(CCc3ccccc3)C2)s1 | -15% | 1.34 |
| CCOCCC1(C(=O)Nc2cc(C)c(NC(C)=O)c(C)c2)CCCC1 | -10% | 1.38 |
| COc1ccccc1[C@@H]1CC(c2ccccc2F)=NN1C(=O)CN(CCN1CCOCC1)C(=O)NC(C)(C)C | -24% | 2.32 |
| CN(CCN1CCCCC1)C(=O)c1cccn1C | -2% | 0.36 |
| CCc1csc([C@H]2CCCN(CCC(=O)O)C2)n1 | 3% | -0.36 |
| COc1ccccc1CC(=O)NCCn1cccc1-c1nc(-c2ccccc2)no1 | -10% | 1.33 |
| CO[C@H]1[C@@H]2CC[C@H]1CN(C(=O)NCc1c(Cl)cccc1Cl)C2 | -24% | 4.19 |
| COc1cc(C(=O)NC[C@H]2CCCC[C@@H]2O)ncn1 | -8% | 1.08 |
| CCOc1ccc(-c2noc(CN3N=NC4C(=O)N(c5ccc(C)cc5)C(=O)C43)n2)cc1OC (stereo not drawn) | -7% | 0.91 |
| Cc1ccc(S(=O)(=O)N(C)c2ccc3sc(C(=O)N4CCCC4)cc3c2)cc1 | -6% | 0.85 |
| CO[C@H]1COCC[C@@H]1NC(=O)c1cccc(C)n1 | 5% | -0.88 |
| Cc1ccc([C@H]2c3cc(OCc4nc(C(=O)NCc5ccc(F)cc5)co4)ccc3CCN2C(=O)CC(C)C)cc1 | -7% | 0.97 |
| Cc1noc2ncnc(NCc3nnc4ccccn34)c12 | -5% | 0.49 |
| COc1cc(C(=O)N2CCC3(CCNC(=O)CC3)CC2)nc(OC)n1 | -6% | 0.82 |
| O=C(c1cc(C2CC2)on1)N1CC(S(=O)(=O)C2CCCCC2)C1 | -10% | 1.32 |
| O=C(Nc1ncc(C2CCNCC2)s1)[C@H]1CCc2cn[nH]c2C1 | -2% | 0.36 |
| Cc1cccnc1CC(=O)NCC1(N(C)C)CCCC1 | -8% | 0.91 |
| O=C(O)c1cccc(OCCNC(=O)[C@H]2CC23CCCCC3)c1 | -9% | 0.97 |
| CCCOc1ccc(-c2noc(C)n2)cc1OC | -9% | 1.42 |
| CC(NCCC(C)(C)C)C(C)N1CCOCC1 (stereo not drawn) | 1% | -0.14 |

| Compound | % Inhibition | Z score |
| --- | --- | --- |
| CNC(=O)C[C@H]1CCN(Cc2ccc3c(c2)OCCO3)C1 | -11% | 1.51 |
| COc1ccc(CNC(=O)C(=O)Nc2ccc(N3CCCS3(=O)=O)cc2)cc1 | -14% | 1.82 |
| Cc1nn(Cc2ccc(Cl)cc2)c(=O)n1-c1ccc(OCc2ccccc2)cc1 | 41% | -5.24 |
| CO[C@@H](C)c1nc(C)c(C(=O)NCCC(F)(F)F)s1 | 5% | -0.92 |
| Cc1cc(N(C)C)nc(CNS(=O)(=O)c2cccs2)n1 | -8% | 1.46 |
| Cc1csc(C(NC(=O)N2CCCC2CN2CCCC2)C2CC2)n1 (stereo not drawn) | 5% | -0.45 |
| Cc1ccc(Cc2nc(N3CCCN(C(=O)Nc4ccc(Cl)c(Cl)c4)CC3)c3c(-c4cccnc4)noc3n2)cc1 | 0% | 0.01 |
| CC(C)NC(=O)CS(=O)(=O)Cc1cccs1 | 5% | -0.7 |
| CC(C)c1nc([C@@H]2CCCCCN2C(=O)c2ccc(C(N)=O)cn2)no1 | -13% | 1.63 |
| Cc1cc(-c2cccc(C(=O)N3CCC4(CCO4)CC3)c2)c(=O)[nH]c1C | -11% | 2.25 |
| COC[C@H](C)NCc1cc(F)ccc1F | 0% | 0.01 |
| COCCCNC(=O)Cn1nc2n(c1=O)CCN(Cc1ccccc1F)C2=O | -1% | 0.12 |
| O=C(COc1ccc2ccccc2c1)Nc1ccccn1 | -11% | 1.71 |
| CN(Cc1n[nH]c(=O)n1Cc1ccc(Cl)cc1Cl)S(C)(=O)=O | -10% | 1.11 |
| CC(C)Oc1cccc(C(=O)NC2CC3CCC(C2)N3CC(=O)N(C)C)n1 (stereo not drawn) | -1% | 0.13 |
| CC[C@@H]1Oc2ccc(NC(=O)c3ccc(Cl)cc3)cc2CN(Cc2ccc(F)cc2)C1=O | -11% | 1.75 |
| C[C@@H](C(=O)N1CCC2(CCc3ccccc32)CC1)c1n[nH]c(=O)c2ccccc12 | -15% | 1.49 |
| O=C(N[C@@H]1COCC[C@@H]1OCC1CC1)c1nc2ccccc2[nH]1 | 3% | -0.51 |
| C[C@H](NCc1ncnn1C)c1cccc(OC(F)F)c1 | -7% | 0.65 |
| CCc1nc([C@@H]2C[C@@H](O)CN2C(=O)C(F)=C(C)C2CC2)n[nH]1 | 2% | -0.39 |
| CC(C)S(=O)(=O)Cc1ccc(N[C@H]2CCOC2=O)cc1 | 5% | -0.75 |

| Compound | % Inhibition | Z score |
| --- | --- | --- |
| CCC#CCN1CCC2(CCC(=O)N(Cc3ccccc3)C2)CC1 | -11% | 2.19 |
| CC1CCN(C[C@@H](O)CNC(=O)C(C)(C)CC(=O)c2ccc(Cl)cc2)CC1 | -4% | 0.41 |
| CC(C)N(CCN(C)C)c1ccc(C(F)(F)F)nn1 | -6% | 0.75 |
| O=C(NCc1ccc(F)cc1F)c1ccc(-c2cccs2)nc1 | -20% | 3.73 |
| C[C@@H](c1nc(-c2cccs2)no1)N(C)CCn1cccn1 | 0% | 0 |
| Cc1ccc(OCC(=O)N(Cc2cccc3ccccc23)c2ccccn2)cc1 | 18% | -2.11 |
| O=C(Cn1c(=O)n(Cc2ccccc2F)c(=O)c2sccc21)N[C@H]1CCc2ccccc21 | -8% | 0.99 |
| O=c1cc(CN(Cc2cccnc2)Cc2ccco2)[nH]c2ccnn12 | -10% | 1.69 |
| CC(C)(C)[C@@H](O)CCNC(=O)CC1CCCC1 | -6% | 1.29 |
| COc1cccc(OC)c1C(=O)Nc1ccc(N2CCCCC2=O)c(C)c1 | -8% | 1.25 |
| COc1ccc(Cc2nc(-c3ccc4c(c3)nc(C)c(=O)n4C3CCCC3)no2)cc1OC | -6% | 0.62 |
| CCOC(=O)c1ccc(N(C)Cc2ccc3c(c2)OCO3)nc1 | 0% | -0.01 |
| CN1CCO[C@@H](CNCCOc2ccccc2C#N)C1 | 5% | -0.74 |
| C[C@@H](c1ccccc1)N(C)Cc1nccn1C1CC1 | -8% | 1.08 |
| Cc1csc(N(C(=O)CC[C@H]2CCCO2)C2CC2)n1 | -14% | 1.84 |
| CCOc1ccc(C/C(=C/N)c2nc(-c3ccc(Cl)cc3)cs2)cc1 | 46% | -5.17 |
| CCOC(=O)N1CCN(C(=O)c2c(O)c3cccc4c3n(c2=O)CC4)CC1 | 8% | -0.94 |
| Cc1ccc(CNC(=O)C2CCC(=O)N(C)C2c2cccc(F)c2)o1 (stereo not drawn) | -2% | 0.37 |
| COc1ccc2c(c1)-c1nc(-n3ncc(C(=O)N4CCC(CO)CC4)c3C3CC3)ncc1CC2 | 0% | 0.02 |
| Cc1cccc(-c2ncc(C(=O)N[C@H]3CCCCNC3=O)c(O)n2)c1 | -3% | 0.64 |
| CCc1ccc(C(=O)NCc2nnc(CC)o2)[nH]1 | 6% | -0.75 |
